# Data published in publication PMC4336329 (PLoS ONE, 2015).
# About 14,000 (4.5%) of roughly 310,000 compounds showed an effect of 50% or more. The effect is printed as a negative number. Some of the results follow.
# Biological target: human ether-à-go-go-related gene (hERG) potassium channel (human, UniProt Q12809)
# Test: primary screen, population patch clamp on CHO cells stably expressing hERG
# 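Note: peak tail current of the secondary pulse compared with the same well before compound.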
# Chain of human ether-à-go-go-related gene (hERG) potassium channel (Q12809 whole entry, looked up): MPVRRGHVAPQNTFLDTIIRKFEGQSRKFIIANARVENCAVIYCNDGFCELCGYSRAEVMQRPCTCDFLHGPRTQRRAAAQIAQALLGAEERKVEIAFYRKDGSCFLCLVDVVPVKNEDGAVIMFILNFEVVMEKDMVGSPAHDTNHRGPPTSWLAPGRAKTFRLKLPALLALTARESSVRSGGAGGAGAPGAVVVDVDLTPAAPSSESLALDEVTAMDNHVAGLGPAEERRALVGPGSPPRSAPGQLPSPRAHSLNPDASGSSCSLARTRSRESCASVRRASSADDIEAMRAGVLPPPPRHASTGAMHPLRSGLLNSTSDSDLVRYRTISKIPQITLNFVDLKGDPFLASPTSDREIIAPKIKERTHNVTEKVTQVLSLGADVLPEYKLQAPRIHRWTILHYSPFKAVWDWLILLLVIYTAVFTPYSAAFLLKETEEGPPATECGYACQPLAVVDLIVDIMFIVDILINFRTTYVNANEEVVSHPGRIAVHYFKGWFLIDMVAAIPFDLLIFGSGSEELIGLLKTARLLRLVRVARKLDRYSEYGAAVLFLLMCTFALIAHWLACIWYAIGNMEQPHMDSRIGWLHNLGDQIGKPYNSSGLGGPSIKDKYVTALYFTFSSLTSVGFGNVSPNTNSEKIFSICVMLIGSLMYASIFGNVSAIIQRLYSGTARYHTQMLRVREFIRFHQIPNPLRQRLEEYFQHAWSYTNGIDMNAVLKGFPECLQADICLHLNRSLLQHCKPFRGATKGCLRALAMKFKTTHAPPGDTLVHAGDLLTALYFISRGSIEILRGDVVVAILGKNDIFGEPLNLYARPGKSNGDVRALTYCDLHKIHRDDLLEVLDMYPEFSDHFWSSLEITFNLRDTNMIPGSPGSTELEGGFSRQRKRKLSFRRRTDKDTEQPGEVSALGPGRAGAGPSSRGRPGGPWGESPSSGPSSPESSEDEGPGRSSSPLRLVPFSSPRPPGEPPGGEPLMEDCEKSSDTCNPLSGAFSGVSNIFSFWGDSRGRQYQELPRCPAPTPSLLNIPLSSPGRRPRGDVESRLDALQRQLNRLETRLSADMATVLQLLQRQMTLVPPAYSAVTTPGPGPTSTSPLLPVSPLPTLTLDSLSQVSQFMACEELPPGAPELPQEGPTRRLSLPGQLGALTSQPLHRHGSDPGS
row,Compound,"hERG current change (%, negative = inhibition) at 10uM"
1,Cc1ccc2nc(NCCCNC(=O)c3cnccn3)c(C#N)cc2c1,-5.49%
2,COc1ccc(CN2[C@@H](CC(C)=O)c3ccc(/C=C/C(C)=O)cc3S2(=O)=O)cc1,-30%
3,O=C(CSc1ccccc1)NCC(c1ccco1)N1CCCCC1 (stereo not drawn),-13.9%
4,CN(C(=O)c1cccc(COc2ccc(Cl)cc2Cl)c1)c1ccccc1,7.35%
5,CC(=O)c1cccc(NC(=O)NCc2cccs2)c1,-1.72%
6,Cc1nnc2ccc(N3CCN(C(=O)c4ccccc4)CC3)nn12,-0.844%
7,CC(Sc1nc(-c2ccccc2)cc(=O)[nH]1)C(=O)O (stereo not drawn),11.4%
8,CCCCNC(=O)c1c(CSc2ccc(Cl)cc2)noc1C(=O)NCc1ccccc1,11.1%
9,N#Cc1cc2c(nc1SCC(=O)NCc1ccc3c(c1)OCO3)CCCCC2,-11.3%
10,Cc1ccc2oc(=O)c3cnn(CC(=O)N(CCC(C)C)Cc4ccco4)c3c2c1,-12.5%
11,COc1ccccc1C(=O)NC(=O)COC(=O)c1ccc(NC(=O)CC#N)cc1,15.3%
12,CN1C(=O)c2ccccc2C(C(=O)O)C1c1cn(C)c2ccccc12 (stereo not drawn),17.6%
13,O=C(NCCNc1nccc(C(F)(F)F)n1)c1cccc(C(F)(F)F)c1,-8.47%
14,COc1cccc(CNC(=O)C2CCC(CNc3c(N4CCC(C)CC4)c(=O)c3=O)CC2)c1 (stereo not drawn),2.37%
15,COc1ccc(CCNC(=O)CNS(=O)(=O)c2cccs2)cc1OC,-2.17%
16,Cc1cc(C(C)(C)C)c(O)c(C)c1CC1=NCCN1.Cl,0.581%
17,c1ccc(Nc2nc(-c3ccncc3)nc3ccccc23)cc1,-0.628%
18,COC(=O)COc1cccc(NC(=O)c2cc(OC)cc(OC)c2)c1,-0.7%
19,CN1CCN(c2nc(-c3ccncc3)nc3ccccc23)CC1,-67.4%
20,COc1cc(/C=C/c2nc(N)nc(-c3ccccc3O)n2)cc(OC)c1OC,-3.86%
21,Cc1cc(OCC(=O)Nc2ccc3c(c2)OCCO3)cc(C)c1Cl,-5.18%
22,O=C(OCC(=O)N1CCN(C(=O)c2ccco2)CC1)c1ccccc1NCCO,12.6%
23,CCOC(=O)c1cccnc1SCC(=O)NCc1ccccc1,-2.75%

row,Compound,"hERG current change (%, negative = inhibition) at 10uM"
1,CN(C(=O)COC(=O)c1ccc[nH]c1=O)C1CCCCC1,34.6%
2,COc1cc(C(=O)NCC(=O)N/N=C/c2cccs2)cc(OC)c1OC,9.91%
3,Cl.O=S(=O)(NCCc1ccccn1)c1cccs1,13.5%
4,Cc1cccc(N(C(=O)c2nsc(Cl)c2Cl)C(C(=O)NC2CCCC2)c2ccc(O)cc2)c1C (stereo not drawn),-3.84%
5,O=C(NNC(=O)c1cnccn1)c1ccc(Cl)c(Cl)c1,19%
6,Cn1cc(S(=O)(=O)N2CCCC2)cc1C(=O)NCCc1ccccc1,-2.66%
7,CSCCC(=O)N1CCC(CCC(=O)NC2CC2)CC1,3.7%
8,CCC(=O)N(Cc1cc2ccc(C)cc2[nH]c1=O)c1ccccc1OC,-4.06%
9,CCCCCCC(O)(CCN1CCCCC1)c1ccccc1.Cl (stereo not drawn),-70.3%
10,Cc1cccc(OCC(=O)NNC(=O)c2ccccc2OCc2c(C)noc2C)c1,-25.4%
11,CC(C)C1=NN2C(=N)CC(=O)N=C2S1,13.8%
12,O=C(NC(=S)NCc1ccncc1)c1ccccc1,8.59%
13,CCOC(=O)c1[nH]c(C)c(C(=O)NC2CCCC2)c1C,-0.781%
14,Cc1nc(N2CCOCC2)nc(N2CCCCC2C)c1[N+](=O)[O-] (stereo not drawn),-0.506%
15,COc1ccc(OC)c(N2C(=O)/C(=C/c3ccco3)C(=O)NC2=S)c1,13%
16,NNC(=O)c1ccc2c(c1)S(=O)(=O)NNC2=O,3.14%
17,COc1cc(SC)ccc1C(=O)N(Cc1ccccc1)c1ccccc1,9.22%
18,Cc1nn(-c2ccc(N3CCCCC3)nn2)c(C)c1CCC(=O)Nc1cc(F)ccc1F,-23.8%
19,CCN1CCN(c2cc(=O)n3ccccc3n2)CC1,13.4%
20,CN(C)/C=N/c1cc(=O)n(Cc2ccccc2)c(=O)n1C,-4.74%
21,O=C(NCCCl)Nc1cc([N+](=O)[O-])ccc1Cl,16.9%
22,Br.CN1CCN(c2nc(-c3cccs3)cs2)CC1,10.5%
23,CC(C)c1ccc(C2CC(=O)N3CN(C)CSC3=C2C#N)cc1 (stereo not drawn),-6.46%

row,Compound,"hERG current change (%, negative = inhibition) at 10uM"
1,COc1ccc(C(=O)NCC(=O)OCc2ccc(F)cc2Cl)cc1OC,-1.96%
2,CN(NC(=O)c1ccccc1F)c1ncccc1[N+](=O)[O-],11.7%
3,O=C(NCc1ccncc1)c1ccc2nc(Cc3ccccc3F)oc2c1,-18.3%
4,Cc1ccc(S(=O)(=O)Nc2ccccc2F)cc1C(=O)NNC(=O)c1csc(N2CCOCC2)n1,-8.32%
5,O=C(NCc1ccc2c(c1)OCO2)c1ccc2c(c1)C(=O)N(CC1CCCO1)C2=O (stereo not drawn),2.28%
6,COc1ccccc1Oc1cc(C#N)c(C#N)cc1-n1nnc2ccccc21,5.34%
7,Cc1ccccc1OCC(=O)NNC(=O)Nc1ccccc1,16.2%
8,CC(C)(C)OC(=O)NCCCCCC(=O)N/N=C/c1coc2ccccc2c1=O,-9.31%
9,Cc1ccc(-n2ncc3c(NCc4cccnc4)ncnc32)c(C)c1,-28.3%
10,CCc1ccc(NC(=O)CS(=O)CC(=O)Nc2ccc(N3CCOCC3)cc2)cc1 (stereo not drawn),2.37%
11,Cc1nc2scc(C)n2c(=O)c1S(=O)(=O)Nc1ccc(OC(F)(F)F)cc1,6.08%
12,O=C(CN1C(=O)c2ccccc2C1=O)Nc1cccc(O)c1,4.28%
13,Cc1cc(C(=O)NNC(=S)NC2CCCCC2)cs1,3.78%
14,COCc1c(C(=O)OCC(=O)NCCc2ccc(S(N)(=O)=O)cc2)oc2ccccc12,-0.489%
15,COc1cc(C)cc(OC)c1OCC(=O)Nc1cc(C)on1,10.8%
16,CCN(CC)S(=O)(=O)c1ccc(Cl)c(NC(=O)COC(=O)/C=C/c2cc(OC)c(OC)c(OC)c2)c1,-1.95%
17,O=C(CNC(=O)c1ccc(Cl)cc1Cl)OCC(=O)N1CCN(c2ccccc2)CC1,-33%
18,COc1ccc(Cn2c(-c3ccc(C)cc3)nc3c(c(=O)c4ccccc4n3C)c2=O)cc1,20.3%
19,O=C(Nc1cccc(F)c1)c1ccccc1,8.84%
20,CC(C)Cc1ccc(CN2CCCC(NC(=O)Cn3cnnn3)C2)cc1 (stereo not drawn),-26.5%
21,CONC(=O)Nc1ccccc1[N+](=O)[O-],8.14%
22,c1ccn2c(c1)nc1c2nc2ccccn21,0.188%
23,CN(C)P(=O)(C(Cl)=C(N1CCCCC1)N1CCCCC1)N(C)C,-8.58%

row,Compound,"hERG current change (%, negative = inhibition) at 10uM"
1,COC(=O)c1c(-c2cc(C)ccc2C)csc1NC(=O)C1CC=CCC1C(=O)O (stereo not drawn),-5.98%
2,CCOC(=O)N1CCN(C(=O)CCNS(=O)(=O)c2ccccc2)CC1,8.69%
3,O=C(Cc1ccc(N2CCNC2=O)cc1)N1CCCC(Nc2cccc(F)c2)C1 (stereo not drawn),4.88%
4,COc1ccc(N(CC(=O)NCc2cccnc2)S(=O)(=O)c2c(C)nn(C)c2C)cc1,3.1%
5,O=C(NC(O)C(=O)c1ccccc1)c1cccs1 (stereo not drawn),6.9%
6,CCOC(=O)CSc1nnc(CNc2nc(-c3ccccc3)cs2)n1C,-22%
7,COc1ccc([C@H]2/C=C\CN(S(=O)(=O)c3cccc4cccnc34)[C@@H](C)C(=O)N2Cc2ccc(F)cc2)cc1,-16.2%
8,O=C(O)c1cc(S(=O)(=O)N(Cc2ccccc2)c2cccc(C(F)(F)F)c2)ccc1Cl,9.43%
9,CC(C)C[C@@H](CO)N1CCN(Cc2ccc(Br)cc2)CCC1=O,-13.5%
10,Cc1oc(-c2ccc(Cl)cc2)nc1CS(=O)CC(=O)NC1CC1 (stereo not drawn),8.75%
11,CN(C)C(=O)Nc1cccc(OC(=O)N(C)C)c1,13.2%
12,O=c1[nH]c2ccccc2cc1CN(c1ccccc1)S(=O)(=O)c1ccccc1,0.56%
13,CCN(c1ccccc1)S(=O)(=O)c1ccc(F)cc1,0.69%
14,CCN(Cc1nc2ccccc2c(=O)[nH]1)C(=O)c1cc2c(s1)CCCCC2,4.62%
15,CC1(C)C(C(=O)OCC(Cl)(Cl)Cl)N2C(=O)C(NC(=O)Cc3ccccc3)C2S1=O (stereo not drawn),1.09%
16,Cc1cc([P+](=O)O)c(C)n1-c1ccc(Br)cc1,21.8%
17,Cl.Clc1cccc(NC2=NCCC2)c1,11.8%
18,COc1ccc(C(=O)N(C)C2CCCN(Cc3ccccc3F)C2)cc1C (stereo not drawn),7.95%
19,CC1Cc2ccccc2N1C(=O)c1ccnc(C(C)(C)C)c1 (stereo not drawn),12.1%
20,CCOC(=O)CNC(=O)c1ccc2[nH]c3c(c2c1)CCCC3,11.5%
21,COCCN(C(=O)c1csnn1)C(C(=O)NC1CCCC1)c1ccccc1 (stereo not drawn),3.23%
